In PubChem BioAssay (NCI) one finds GI50 and TGI data, which are given here for 61 compounds.

In this assay the test system is NCI-H322M lung. Nature of the assay: inhibition of tumour cell growth, NCI panel, 48 h.

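Following 48 hours of exposure in 96-well plates, responses at five concentrations were used to interpolate endpoints linearly. GI50 = concentration required for 50% inhibition of growth. Definition used: TGI = concentration required for complete inhibition of growth.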

For `COc1cc(/C=C2\C[C@H]3[C@@H]4CC=C5C[C@@H](OC(C)=O)CC[C@]5(C)[C@H]4CC[C@]3(C)[C@H]2OC(C)=O)ccc1OCCN1CCCC1`, the GI50 was 8.1 µM and the TGI was 16 µM.

`[N-]=[N+]=CC(=O)CCC(=O)N(c1ccccc1)c1ccccc1` came in with a TGI of over 10 µM.

For the compound `O=c1c2c(c1=O)-c1ccccc1CN2`, the TGI was over 100 µM.

On to `CC(C)[C@@H](C)[C@@]1(C)C[C@@H]1[C@@H](C)[C@H]1CC[C@@H]([C@@H]2CC=C3C[C@@H](O)CC[C@]3(C)C2=O)[C@]1(C)CCO`, for which the TGI worked out at 25.6 µM.

Turning to `COc1cc(/C=C/C(=O)c2c(C)nc3ccccc3c2C)ccc1OCCCN1CCN(C(=O)c2ccco2)CC1`, the GI50 was 13.5 µM and the TGI came to 26.8 µM.

Regarding `CSc1c(C#N)c(S)[nH]c(=O)c1C#N`, the TGI was over 100 µM.

As for `CC(C)C1N2CCCCC2[C@@H]2c3[nH]c4ccccc4c3CCN12` (some centres undefined), the TGI is over 100 µM.

Compound `O=C1C2C3C=CC(C2C(=O)N1CN1CCSCC1)C1C2C(=O)N(CN4CCSCC4)C(=O)C2C31` (centres undefined) had a TGI of over 100 µM.

On to `COC(=O)C1(C)NCCc2c1[nH]c1ccccc21` (centres undefined), for which the TGI is over 100 µM.

In the case of `C=CCc1c(O)c(C(=O)/C=C/c2ccccc2)c(OC)c2ccoc12`, the GI50 was 3.19 µM and the TGI stood at 11.2 µM.

For `CN(CCCn1ccnc1[N+](=O)[O-])CCCn1ccnc1[N+](=O)[O-]`, the TGI is over 100 µM.

Compound `Cn1c(N=P(c2ccccc2)(c2ccccc2)c2ccccc2)c([N+](=O)[O-])c(=O)n(C)c1=O` had a TGI of over 100 µM.

On to `O=P(O)(CN1CCN(CP(=O)(O)c2ccccc2)CCN(CP(=O)(O)c2ccccc2)CC1)c1ccccc1`, for which the TGI was over 100 µM.

Turning to `O=C1C(S(=O)(=O)c2ccccc2)=C(CS(=O)(=O)c2ccccc2)[C@@H](OCc2ccccc2)[C@@H]1OCc1ccccc1`, the TGI stood at 93.8 µM.

Turning to `C=C1Cc2cc(OC)c(OC)c(OC)c2-c2ccc(SC)c(=O)cc21`, the TGI was 1.86 µM.

As for `COc1ccc(/C=C2\c3cc(OC)c(OC)c(OC)c3CC[C@@H]2O)cc1F`, the GI50 was 0.544 µM and the TGI is over 100 µM.

As for `Cn1c(=O)c(Cl)c(N=[N+]=[N-])c2ccccc21`, the TGI was over 100 µM.

Take `COc1cccc(NC(=O)C(=O)C2C=CCS2(=O)=O)c1` (centres undefined): the TGI was over 100 µM.

`C=C1C(=O)O[C@H]2[C@H]1CC/C(COC(=O)NCCCCCCCCNC(=O)OC/C1=C/CC[C@@]3(C)O[C@H]3[C@H]3OC(=O)C(=C)[C@@H]3CC1)=C\CC[C@@]1(C)O[C@@H]21`: the GI50 is 2.14 µM and the TGI amounted to 4.59 µM.

In turn, `CCOC(=O)C1(Br)S(=O)(=O)OCCOS1(=O)=O` registered a TGI of over 100 µM.

Compound `CCCCc1c2c(c(C)c3c1C(=O)OC3)Oc1ccccc1O2` gave a TGI of 27.5 µM.

Turning to `COC(=O)C1C=CCON2CCc3c(n(S(=O)(=O)c4ccccc4)c4ccccc34)C12` (centres undefined), the TGI was over 100 µM.

Consider `CCOC(=O)CNc1nnnn1C1OC(CO)C(O)C1O` (centres undefined), for which the TGI is over 100 µM.

The compound `CCN(CC)CCn1c2ccccc2c(=O)c2c(OC)ccc(OC)c21` came in with a TGI of over 100 µM.

Take `COc1ccc(OC)c(/C=C/c2nc(SCc3ccccc3)n(-c3ccc(Cl)cc3)n2)c1`: the GI50 is 11 µM and the TGI was found to be 88.2 µM.

Turning to `CC1(C)N=C(N)N=C(N)N1c1cccc(Br)c1`, the GI50 is 7.26 µM and the TGI is over 100 µM.

For the compound `CC(=O)/C(C=Nc1c(C)n(C)n(C)c1=O)=C(/O)c1ccccc1`, the TGI was over 50 µM.

Consider `COc1ccc(OC)c2c3c([nH]c12)C(=O)Nc1nc(N)nc(N)c1C3`, for which the TGI was over 100 µM.

In turn, `Cc1cc2nc(N3C(=O)/C(=C/c4ccc(N(C)C)cc4)N=C3c3ccccc3)sc2cc1C` had a TGI of over 100 µM.

Regarding `COCc1c(-c2ccc(NC(=O)Nc3cc(C(F)(F)F)ccc3F)c(F)c2)c2c(N)ncnn2c1CN1CCOCC1`, the GI50 was 1.78 µM and the TGI amounted to 8.03 µM.

Take `COc1ccc(C(=O)/C=C/c2ccc(OCC(=N)N)cc2)cc1`: the TGI turned out to be 27.6 µM.

`CCOC(=O)C(Cc1ccc(N(CCCl)CCCl)cc1)NC(=O)CCCN1C(=O)CN=C(c2ccccc2)c2cc(Cl)ccc21` (centres undefined) yielded a TGI of over 100 µM.

`Cc1ccccc1C1CC(c2ccccc2)=NO1` (centres undefined) yielded a TGI of over 100 µM.

Compound `O=[N+]([O-])C(=C/c1cccs1)/C(=C\c1cccs1)[N+](=O)[O-]` yielded a TGI of 5.87 µM.

With `CC1=C2C3OC(=O)C(C)C3CCC2(C)C=CC1=Nc1ccccc1` (centres undefined), the TGI was over 100 µM.

In the case of `CCCCN(CCCC)CCCn1cnc2ncccc2c1=O`, the TGI is over 100 µM.

`COCCn1cc(-c2csc(-c3c[nH]c4ccc(Br)cc34)n2)c2cccnc21`: the GI50 was 11.8 µM and the TGI is over 100 µM.

Regarding `O=c1oc2ccc3ccccc3c2cc1-c1nc2ccc([N+](=O)[O-])cc2o1`, the TGI was over 100 µM.

The compound `CC1CC[P+](c2ccccc2)(c2ccccc2)CC1` yielded a TGI of over 100 µM.

As for `Cc1cc(Cl)cc(Cc2cc(Cl)cc(C)c2O)c1O`, the GI50 is 3.89 µM and the TGI turned out to be 16.7 µM.

With `Cc1ccc(S(=O)(=O)N2CCc3ccc(O)c4c3C2Cc2ccc3c(c2-4)OCO3)cc1` (centres undefined), the GI50 is 4.05 µM and the TGI is 99.2 µM.

As to `CCOC(=O)C(CCc1ncnc2c1ncn2Cc1ccccc1)(CCc1ncnc2c1ncn2Cc1ccccc1)C(=O)OCC`, the TGI is over 100 µM.

On to `COc1cccc(/C=C\c2ccc(O)cc2)c1`, for which the TGI was over 100 µM.

For the compound `N/C(=N\S(=O)(=O)c1cc(Cl)c(Oc2ccc([N+](=O)[O-])cc2Cl)c(Cl)c1)Nc1ccc(Cl)cc1`, the TGI came to 33.1 µM.

Regarding `O=[N+]([O-])c1cccc(N=Nc2c(O)ccc3ccccc23)c1`, the TGI is over 100 µM.

In turn, `COc1cc(/C=N/NC2=NCCCCN2)ccc1O` came in with a TGI of over 100 µM.

As to `CCOCc1cc(=O)c2c(OC)cc3c(c2o1)CCC(C)(C)O3`, the TGI was over 100 µM.

The compound `COc1cc(C=O)cc(O)c1O` yielded a TGI of over 100 µM.

`CC1=C([Se]CC(OC(=O)[C@@H](CO)NC(=O)OC(C)(C)C)C(=O)NCCCCCC(=O)OCc2ccccc2)C(=O)c2ccccc2C1=O` (some centres undefined): the GI50 is 0.418 µM and the TGI stood at 1.92 µM.

In turn, `C=CCN(N=O)C(=O)NCCCCC(NC(C)=O)C(=O)NCc1ccccc1` (centres undefined) had a TGI of over 100 µM.

The compound `O=c1c2ccccc2[nH]c2c(Cl)cc(Cl)c(N3CCCCC3)c12` yielded a TGI of over 100 µM.

The compound `O=C1NC(=S)NC(=O)C1=C/C=C/c1ccc([N+](=O)[O-])cc1` yielded a TGI of 49.8 µM.

Take `CC(C)CCCC(C)[C@H]1CC[C@H]2N=C(NCc3ccccc3)CCC[C@]12C` (some centres undefined): the TGI was found to be 5.68 µM.

The compound `CCCN(CCC)C1=Nc2ccccc2-n2cnnc2C1` gave a TGI of over 100 µM.

Regarding `CSc1ccc(C(=O)/C=C/c2ccccc2Cl)cc1`, the GI50 was 16.9 µM and the TGI is 35.9 µM.

On to `COC(=O)C1=C(CCC[C@H](C)O[Si](C)(C)C(C)(C)C)NC(=O)N2[C@@H](CCO)CC[C@H]12`, for which the TGI was 31.6 µM.

Consider `C=C(CCCO)[C@@H]1CC[C@@](C)(O)[C@H]1C`, for which the TGI is over 100 µM.

`Cc1ccc2nc(NC(=O)/C(=N\NC(=S)NN)C3C(=O)NC(=S)NC3=O)sc2c1` registered a TGI of over 100 µM.

As to `CCO/C(Cc1ccc(Cl)cc1)=N/NC(N)=S`, the TGI is over 100 µM.

As for `COc1cc2ccc1OCc1cccc(n1)COc1ccc(cc1OC)C=NCCNCCN=C2`, the TGI was over 100 µM.

Take `CCCCCCCCCCCCCB(O)O`: the TGI was over 100 µM.
